Measurements taken from PMC12820563, “FoxP3 forms a head-to-head dimer in vivo and stabilizes its multimerization on adjacent microsatellites”.
This is one part of the list.

Biological target: T1, MBP-FoxP1dN (Mus musculus, UniProt P58462 326-579)
T1 sequence: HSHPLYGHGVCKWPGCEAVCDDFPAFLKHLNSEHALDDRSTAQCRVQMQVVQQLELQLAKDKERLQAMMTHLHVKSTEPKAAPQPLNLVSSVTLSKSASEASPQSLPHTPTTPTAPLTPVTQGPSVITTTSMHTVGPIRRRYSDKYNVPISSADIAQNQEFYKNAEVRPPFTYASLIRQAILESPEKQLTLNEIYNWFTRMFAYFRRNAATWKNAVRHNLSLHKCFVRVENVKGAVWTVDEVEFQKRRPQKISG
Assay: PD-seq (MBP pull-down with sequencing); 20 mM Tris-HCl pH 7.5, 100 mM NaCl, 1.5 mM MgCl2, 0.4 uM protein, 0.1 uM dsDNA library, 30 min, room temperature, amylose pull-down; high values mean tight binding
Settings: protein: recombinant; tags: His6-MBP; chain copies: 2; dsDNA, one strand shown
In short: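 Mouse FoxP3 or FoxP1 fragment lacking the N-terminus, His6-MBP-tagged and expressed in E. coli, was incubated at 0.4 µM with 0.1 µM Klenow-filled degenerate double-stranded DNA library for 30 min at room temperature in Tris pH 7.5 buffer with NaCl and MgCl2. Complexes captured on amylose resin were washed three times and their DNA sequenced on Illumina. Binding is reads-per-million enrichment of pull-down over input, replicates pooled.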

Sequence	binding signal
GATGATTGTTCTCCCAGCTGATGAATTGCAGCAATCGAGTAAACAAATTTTCCTAATCTTTCTGTTCAAGCGCCATCTAC	1.33 RPM ratio (pull-down/input)
GATGATTGTTCTCCCAGCTGATGAATTCGGAGCGTCGAGTAAACAAATTTTCCTAATCTTTCTGTTCAAGCGCCATCTAC	0.828 RPM ratio (pull-down/input)
GATGATTGTTCTCCCAGCTGATGAATTTGACAGTTCGAGTAAACAAATTTTCCTAATCTTTCTGTTCAAGCGCCATCTAC	0.871 RPM ratio (pull-down/input)
GATGATTGTTCTCCCAGCTGATGAATTCGGCCGTTCGAGTAAACAAATTTTCCTAATCTTTCTGTTCAAGCGCCATCTAC	0.876 RPM ratio (pull-down/input)
GATGATTGTTCTCCCAGCTGATGAATTTAGACGGTCGAGTAAACAAATTTTCCTAATCTTTCTGTTCAAGCGCCATCTAC	0.968 RPM ratio (pull-down/input)
GATGATTGTTCTCCCAGCTGATGAATTCTATTCGTCGAGTAAACAAATTTTCCTAATCTTTCTGTTCAAGCGCCATCTAC	0.939 RPM ratio (pull-down/input)
GATGATTGTTCTCCCAGCTGATGAATTATGACACTCGAGTAAACAAATTTTCCTAATCTTTCTGTTCAAGCGCCATCTAC	1.01 RPM ratio (pull-down/input)
GATGATTGTTCTCCCAGCTGATGAATTCATTAGGTCGAGTAAACAAATTTTCCTAATCTTTCTGTTCAAGCGCCATCTAC	0.864 RPM ratio (pull-down/input)
GATGATTGTTCTCCCAGCTGATGAATTCACAGGATCGAGTAAACAAATTTTCCTAATCTTTCTGTTCAAGCGCCATCTAC	0.817 RPM ratio (pull-down/input)
GATGATTGTTCTCCCAGCTGATGAATTGATGGCCTCGAGTAAACAAATTTTCCTAATCTTTCTGTTCAAGCGCCATCTAC	0.955 RPM ratio (pull-down/input)
GATGATTGTTCTCCCAGCTGATGAATTTCAGATATCGAGTAAACAAATTTTCCTAATCTTTCTGTTCAAGCGCCATCTAC	0.878 RPM ratio (pull-down/input)
GATGATTGTTCTCCCAGCTGATGAATTTATATCCTCGAGTAAACAAATTTTCCTAATCTTTCTGTTCAAGCGCCATCTAC	1.02 RPM ratio (pull-down/input)
GATGATTGTTCTCCCAGCTGATGAATTGAAGAATTCGAGTAAACAAATTTTCCTAATCTTTCTGTTCAAGCGCCATCTAC	0.949 RPM ratio (pull-down/input)
GATGATTGTTCTCCCAGCTGATGAATTCCGTAGATCGAGTAAACAAATTTTCCTAATCTTTCTGTTCAAGCGCCATCTAC	0.859 RPM ratio (pull-down/input)
GATGATTGTTCTCCCAGCTGATGAATTTCGTTCTTCGAGTAAACAAATTTTCCTAATCTTTCTGTTCAAGCGCCATCTAC	0.887 RPM ratio (pull-down/input)
GATGATTGTTCTCCCAGCTGATGAATTACATCTCTCGAGTAAACAAATTTTCCTAATCTTTCTGTTCAAGCGCCATCTAC	1.13 RPM ratio (pull-down/input)
GATGATTGTTCTCCCAGCTGATGAATTGGTCTCCTCGAGTAAACAAATTTTCCTAATCTTTCTGTTCAAGCGCCATCTAC	0.893 RPM ratio (pull-down/input)
GATGATTGTTCTCCCAGCTGATGAATTTAAATTCTCGAGTAAACAAATTTTCCTAATCTTTCTGTTCAAGCGCCATCTAC	0.863 RPM ratio (pull-down/input)
GATGATTGTTCTCCCAGCTGATGAATTTGTGGGATCGAGTAAACAAATTTTCCTAATCTTTCTGTTCAAGCGCCATCTAC	1.06 RPM ratio (pull-down/input)
GATGATTGTTCTCCCAGCTGATGAATTAAAGCGATCGAGTAAACAAATTTTCCTAATCTTTCTGTTCAAGCGCCATCTAC	1.04 RPM ratio (pull-down/input)
GATGATTGTTCTCCCAGCTGATGAATTGAAGGATTCGAGTAAACAAATTTTCCTAATCTTTCTGTTCAAGCGCCATCTAC	0.821 RPM ratio (pull-down/input)

Sequence	binding signal
GATGATTGTTCTCCCAGCTGATGAATTGAACTCTTCGAGTAAACAAATTTTCCTAATCTTTCTGTTCAAGCGCCATCTAC	0.871 RPM ratio (pull-down/input)
GATGATTGTTCTCCCAGCTGATGAATTGGCCACTTCGAGTAAACAAATTTTCCTAATCTTTCTGTTCAAGCGCCATCTAC	0.9 RPM ratio (pull-down/input)
GATGATTGTTCTCCCAGCTGATGAATTAAAATTATCGAGTAAACAAATTTTCCTAATCTTTCTGTTCAAGCGCCATCTAC	0.998 RPM ratio (pull-down/input)
GATGATTGTTCTCCCAGCTGATGAATTCAATGGTTCGAGTAAACAAATTTTCCTAATCTTTCTGTTCAAGCGCCATCTAC	0.854 RPM ratio (pull-down/input)
GATGATTGTTCTCCCAGCTGATGAATTTCCTAATTCGAGTAAACAAATTTTCCTAATCTTTCTGTTCAAGCGCCATCTAC	0.852 RPM ratio (pull-down/input)
GATGATTGTTCTCCCAGCTGATGAATTGAGGATCTCGAGTAAACAAATTTTCCTAATCTTTCTGTTCAAGCGCCATCTAC	0.758 RPM ratio (pull-down/input)
GATGATTGTTCTCCCAGCTGATGAATTGGTAGCTTCGAGTAAACAAATTTTCCTAATCTTTCTGTTCAAGCGCCATCTAC	0.901 RPM ratio (pull-down/input)
GATGATTGTTCTCCCAGCTGATGAATTCAACTAATCGAGTAAACAAATTTTCCTAATCTTTCTGTTCAAGCGCCATCTAC	1.02 RPM ratio (pull-down/input)
GATGATTGTTCTCCCAGCTGATGAATTGCCACTATCGAGTAAACAAATTTTCCTAATCTTTCTGTTCAAGCGCCATCTAC	1.14 RPM ratio (pull-down/input)
GATGATTGTTCTCCCAGCTGATGAATTTTTACGATCGAGTAAACAAATTTTCCTAATCTTTCTGTTCAAGCGCCATCTAC	0.896 RPM ratio (pull-down/input)
GATGATTGTTCTCCCAGCTGATGAATTCATGGAATCGAGTAAACAAATTTTCCTAATCTTTCTGTTCAAGCGCCATCTAC	1.07 RPM ratio (pull-down/input)
GATGATTGTTCTCCCAGCTGATGAATTCCCTCGATCGAGTAAACAAATTTTCCTAATCTTTCTGTTCAAGCGCCATCTAC	0.83 RPM ratio (pull-down/input)
GATGATTGTTCTCCCAGCTGATGAATTGAAAGTTTCGAGTAAACAAATTTTCCTAATCTTTCTGTTCAAGCGCCATCTAC	0.949 RPM ratio (pull-down/input)
GATGATTGTTCTCCCAGCTGATGAATTCCCTGTTTCGAGTAAACAAATTTTCCTAATCTTTCTGTTCAAGCGCCATCTAC	0.907 RPM ratio (pull-down/input)
GATGATTGTTCTCCCAGCTGATGAATTTGCATTATCGAGTAAACAAATTTTCCTAATCTTTCTGTTCAAGCGCCATCTAC	1.49 RPM ratio (pull-down/input)
GATGATTGTTCTCCCAGCTGATGAATTAGCAAAGTCGAGTAAACAAATTTTCCTAATCTTTCTGTTCAAGCGCCATCTAC	0.876 RPM ratio (pull-down/input)
GATGATTGTTCTCCCAGCTGATGAATTTTGAATTTCGAGTAAACAAATTTTCCTAATCTTTCTGTTCAAGCGCCATCTAC	0.984 RPM ratio (pull-down/input)
GATGATTGTTCTCCCAGCTGATGAATTAGCACAGTCGAGTAAACAAATTTTCCTAATCTTTCTGTTCAAGCGCCATCTAC	0.971 RPM ratio (pull-down/input)
GATGATTGTTCTCCCAGCTGATGAATTGGCCTTCTCGAGTAAACAAATTTTCCTAATCTTTCTGTTCAAGCGCCATCTAC	0.772 RPM ratio (pull-down/input)
GATGATTGTTCTCCCAGCTGATGAATTGTCCATGTCGAGTAAACAAATTTTCCTAATCTTTCTGTTCAAGCGCCATCTAC	0.983 RPM ratio (pull-down/input)
GATGATTGTTCTCCCAGCTGATGAATTTGTGTACTCGAGTAAACAAATTTTCCTAATCTTTCTGTTCAAGCGCCATCTAC	2.09 RPM ratio (pull-down/input)

Sequence	binding signal
GATGATTGTTCTCCCAGCTGATGAATTTTAATGATCGAGTAAACAAATTTTCCTAATCTTTCTGTTCAAGCGCCATCTAC	1.06 RPM ratio (pull-down/input)
GATGATTGTTCTCCCAGCTGATGAATTATACTCTTCGAGTAAACAAATTTTCCTAATCTTTCTGTTCAAGCGCCATCTAC	0.961 RPM ratio (pull-down/input)
GATGATTGTTCTCCCAGCTGATGAATTTTGCTTATCGAGTAAACAAATTTTCCTAATCTTTCTGTTCAAGCGCCATCTAC	2.09 RPM ratio (pull-down/input)
GATGATTGTTCTCCCAGCTGATGAATTGTTTTTATCGAGTAAACAAATTTTCCTAATCTTTCTGTTCAAGCGCCATCTAC	2.19 RPM ratio (pull-down/input)
GATGATTGTTCTCCCAGCTGATGAATTGACGTTGTCGAGTAAACAAATTTTCCTAATCTTTCTGTTCAAGCGCCATCTAC	1.35 RPM ratio (pull-down/input)
GATGATTGTTCTCCCAGCTGATGAATTTGGAGGTTCGAGTAAACAAATTTTCCTAATCTTTCTGTTCAAGCGCCATCTAC	0.79 RPM ratio (pull-down/input)
GATGATTGTTCTCCCAGCTGATGAATTCGGAGGGTCGAGTAAACAAATTTTCCTAATCTTTCTGTTCAAGCGCCATCTAC	0.677 RPM ratio (pull-down/input)
GATGATTGTTCTCCCAGCTGATGAATTGGGGATGTCGAGTAAACAAATTTTCCTAATCTTTCTGTTCAAGCGCCATCTAC	0.865 RPM ratio (pull-down/input)
GATGATTGTTCTCCCAGCTGATGAATTGATTACGTCGAGTAAACAAATTTTCCTAATCTTTCTGTTCAAGCGCCATCTAC	1.39 RPM ratio (pull-down/input)
GATGATTGTTCTCCCAGCTGATGAATTGCCATAGTCGAGTAAACAAATTTTCCTAATCTTTCTGTTCAAGCGCCATCTAC	0.958 RPM ratio (pull-down/input)
GATGATTGTTCTCCCAGCTGATGAATTTGACACATCGAGTAAACAAATTTTCCTAATCTTTCTGTTCAAGCGCCATCTAC	0.966 RPM ratio (pull-down/input)
GATGATTGTTCTCCCAGCTGATGAATTCATAGGGTCGAGTAAACAAATTTTCCTAATCTTTCTGTTCAAGCGCCATCTAC	0.779 RPM ratio (pull-down/input)
GATGATTGTTCTCCCAGCTGATGAATTTCCCATTTCGAGTAAACAAATTTTCCTAATCTTTCTGTTCAAGCGCCATCTAC	0.825 RPM ratio (pull-down/input)
GATGATTGTTCTCCCAGCTGATGAATTCCTTTAATCGAGTAAACAAATTTTCCTAATCTTTCTGTTCAAGCGCCATCTAC	0.94 RPM ratio (pull-down/input)
GATGATTGTTCTCCCAGCTGATGAATTCCACTGTTCGAGTAAACAAATTTTCCTAATCTTTCTGTTCAAGCGCCATCTAC	0.892 RPM ratio (pull-down/input)
GATGATTGTTCTCCCAGCTGATGAATTGGACGGTTCGAGTAAACAAATTTTCCTAATCTTTCTGTTCAAGCGCCATCTAC	0.811 RPM ratio (pull-down/input)
GATGATTGTTCTCCCAGCTGATGAATTGGAGTAATCGAGTAAACAAATTTTCCTAATCTTTCTGTTCAAGCGCCATCTAC	1.33 RPM ratio (pull-down/input)
GATGATTGTTCTCCCAGCTGATGAATTTTACCTTTCGAGTAAACAAATTTTCCTAATCTTTCTGTTCAAGCGCCATCTAC	0.862 RPM ratio (pull-down/input)
GATGATTGTTCTCCCAGCTGATGAATTTAGAACGTCGAGTAAACAAATTTTCCTAATCTTTCTGTTCAAGCGCCATCTAC	0.984 RPM ratio (pull-down/input)
GATGATTGTTCTCCCAGCTGATGAATTTTGTTTTTCGAGTAAACAAATTTTCCTAATCTTTCTGTTCAAGCGCCATCTAC	2.75 RPM ratio (pull-down/input)
GATGATTGTTCTCCCAGCTGATGAATTGCCATGTTCGAGTAAACAAATTTTCCTAATCTTTCTGTTCAAGCGCCATCTAC	1.01 RPM ratio (pull-down/input)
